Among all 410,000 compounds or so, about 6,400 (1.6%) were called active. This list was built around the results that the source calls inconclusive (neither active nor inactive); the mix of calls is not that of the screen. The call rests on the fitted dose curve; in most records, active means well fitted inhibition curve with a large enough effect; inconclusive means small, poorly fitted or top-dose-only effect; inactive means no such curve, though single readings can be large or run the other way. A potency beside an inconclusive call is a rough fit, not a confirmed value.
target: Glucagon-like peptide 1 receptor (Homo sapiens) (UniProt P43220); test: qHTS of GLP-1 Receptor Inverse Agonists (Inhibition Mode); conditions: HEK293 GLP-1R CRE-luciferase, luminescence, 24 h, GLP-1R form is constitutively active; activity change, negative = inhibition: at 38.3 µM (top of the series) unless noted; further: nearly all actives have a fitted effect of over 55% in size
Method in brief: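 Assay principle: reduced luminescence from a cAMP-responsive reporter in HEK293 cells co-expressing a constitutively active GLP-1R. Conditions: 24 hr compound incubation, 37 deg C, 5% CO2.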
On the % scale 0 is the no-effect control and ±100 the full control effect; potency means the concentration at half of the fitted maximal effect; tags describe the fitted curve by direction and shape.

Chain of UniProt P43220 (P43220 whole entry, looked up): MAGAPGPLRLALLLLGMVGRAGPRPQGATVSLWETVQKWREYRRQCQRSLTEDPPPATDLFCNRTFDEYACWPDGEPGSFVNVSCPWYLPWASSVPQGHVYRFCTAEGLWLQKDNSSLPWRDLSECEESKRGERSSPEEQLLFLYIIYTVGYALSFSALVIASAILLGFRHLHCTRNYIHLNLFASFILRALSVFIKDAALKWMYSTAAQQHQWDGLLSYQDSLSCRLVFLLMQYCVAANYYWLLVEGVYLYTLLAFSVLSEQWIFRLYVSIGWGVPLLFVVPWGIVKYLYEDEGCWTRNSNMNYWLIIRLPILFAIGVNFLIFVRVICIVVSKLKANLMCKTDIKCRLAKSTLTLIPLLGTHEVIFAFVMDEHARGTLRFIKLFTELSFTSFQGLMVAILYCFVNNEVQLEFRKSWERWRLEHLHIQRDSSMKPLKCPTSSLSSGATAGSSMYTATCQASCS

Activity change, negative = inhibition, inactive:
CN(C)c1cc(-c2ccc(Cl)c(Cl)c2)oc(=O)c1Cl 3.04%
Cc1cc(Br)ccc1N=C1NC(=O)CS1 12.4%
Cc1ccc(Nc2nc(N)nc(CSc3nc(C)cc(C)n3)n2)cc1 160%
O=c1[nH]c2ccccc2cc1-c1noc(-c2cccnc2)n1 -9.95%
CCN(CC)c1ccc(N=C2C(=O)Nc3ccccc32)cc1 -28.2%
Cc1cc(NC(=O)C2CCN(S(=O)(=O)c3cccs3)CC2)no1 3.47%
Cn1c(=O)n(C)c2cc(N3CCOCC3)c(NC(=O)c3ccc(C(C)(C)C)cc3)cc21 12.1%

Potency, inconclusive:
Cc1cccc(Nc2cc(C)nc(-n3nc(C)cc3C)n2)c1 10 µM [inhibitor, partial curve, poor fit]
Cc1c(C(=O)Nc2ccc(F)cc2)oc2ccc(S(=O)(=O)N3CCCCCC3)cc12 8.91 µM [inhibitor, partial curve, poor fit]
O=C1c2ccsc2SCCN1Cc1ccc(F)cc1 28.2 µM [inhibitor, single point]
N#C/C(=N\Nc1cc(Cl)cc(Cl)c1)c1nnc2n1CCCCC2 7.94 µM [inhibitor, partial curve, poor fit]
COc1ccc(CN(C)C(=O)c2cccc(S(=O)(=O)N3CCCc4ccccc43)c2)c(OC)c1OC 28.2 µM [inhibitor, single point]
Cc1cccc(C(=O)N2c3ncnn3C3(CCCCC3)[C@@H]3CCCC[C@@H]32)c1 12.6 µM [inhibitor, partial curve, poor fit]
CC(NC(=O)c1cccc(S(=O)(=O)N2CCN(C)CC2)c1)c1ccc(Cl)cc1Cl (centres undefined) 10 µM [inhibitor, single point]
CSc1ccc(CNC(=O)c2sc3ncnc(N(C)C4CCCCC4)c3c2C)cc1 14.1 µM [inhibitor, single point]
CCOc1ccc(C(=O)Nc2cccc(NC(=O)c3ccc(Cl)cc3Cl)c2)cc1 12.6 µM [inhibitor, partial curve, poor fit]
CCCSc1ncc(Cl)c(C(=O)Nc2ccc(S(=O)(=O)N3CC(C)OC(C)C3)cc2)n1 (centres undefined) 28.2 µM [inhibitor, single point]
C=C[C@H]1C(C(=O)OCC)=CC[C@@H](c2ccccc2)N1S(=O)(=O)c1ccc(C)cc1 31.6 µM [inhibitor, partial curve, poor fit]
CSc1ccccc1NC(=O)COC(=O)c1ccccc1Cc1ccccc1 22.4 µM [inhibitor, partial curve, poor fit]
CCOc1ccccc1NC1=C(Cl)C(=O)N(Cc2ccccc2)C1=O 6.31 µM [inhibitor, partial curve, poor fit]
COc1ccc(OC)c(CN2CCN(Cc3ccc(OC)c(OC)c3OC)CC2)c1 14.1 µM [inhibitor, single point]
CSCC[C@H](NC(=O)c1cc([N+](=O)[O-])ccc1Cl)c1nc2ccccc2[nH]1 28.2 µM [inhibitor, single point]
CCCCOc1ccccc1Cn1c(=O)sc2ccccc21 11.2 µM [inhibitor, single point]
CCOC(=O)[C@]12CCC=C1N(Cc1ccc(Cl)cc1Cl)C(=O)[C@H](CC(=O)NCc1cccc3ccccc13)C2 11.2 µM [inhibitor, single point]
O=C(c1cc(COc2ccc(F)c(F)c2)on1)N1CCN(C/C=C/c2ccccc2)CC1 8.91 µM [inhibitor, partial curve, poor fit]
Cc1ccc(C(=O)Nc2ncc(C)s2)s1 12.6 µM [inhibitor, single point]
CCNC(=O)c1cc2c(c(-c3cccc(-c4cccnc4)c3)n1)[C@H](CCO)N(S(C)(=O)=O)C2 8.91 µM [inhibitor, partial curve, poor fit]
CCN(CC)C(=O)c1cccc(-c2csc(C(O)(c3ccccc3)C(F)(F)F)n2)c1 (centres undefined) 14.1 µM [inhibitor, single point]
O=C(C1CCCCC1)N1CCN(c2ccnc3cc(Cl)ccc23)CC1 10 µM [inhibitor, single point]
O=C(Nc1nc2ccccc2s1)c1ccc(OCC2CCCO2)cc1 (centres undefined) 5.01 µM [inhibitor, full curve]
CC(C)(C)c1ccc(OCC(=O)N(c2ccccn2)C2CCCCC2)cc1 3.16 µM [inhibitor, full curve, poor fit]
COc1ccc(CNCCC(c2ccccc2)C2CCOC(C)(C)C2)cc1 (centres undefined) 8.91 µM [inhibitor, partial curve, poor fit]
COc1ccc(F)cc1CN1CCN(C(=O)CCC(=O)Nc2nnc(C3CCCCC3)s2)CC1 11.2 µM [inhibitor, partial curve, poor fit]
Cc1ccc(C)c2[nH]c(=O)c(CN(CCCN(C)C)C(=O)NCc3ccccc3)cc12 10 µM [inhibitor, partial curve, poor fit]
COc1ccc(-c2noc(CCC(=O)N3CCN(c4cccc(OC)c4)CC3)n2)cc1 10 µM [inhibitor, single point]
COc1ccc(NC(=O)Cc2csc(NC(=O)Nc3ccccc3OC)n2)cc1 28.2 µM [inhibitor, single point]
O=C(NCCS(=O)(=O)N1CCN(c2ccccc2)CC1)C1CCCC1 28.2 µM [inhibitor, single point]
CCN(CC)c1ccc(NC(=O)c2cc(OC)cc(OC)c2)c(C)c1 1.12 µM [inhibitor, full curve, poor fit]

Potency, active:
COc1cccc(NC(=O)CN(C)C(=O)c2ccc(Cl)c(S(=O)(=O)N3CCCCCC3)c2)c1 8.91 µM

From PubChem BioAssay AID624417 (National Center for Advancing Translational Sciences (NCATS), 2012)
